Results taken from the supplement of paper PMC3334620.
Whole data set: some 33,000 sequences, median “E-score (-0.5 to 0.5)” near -0.021, cut for the highest 2% near 0.32. This is one part of the list.

Each sequence was assayed against T1, Zap1 (UniProt P47043) (assay: PBM E-score (8-mer binding enrichment) (E-score (-0.5 to 0.5)); higher = stronger / more preferred TF binding; most listed sequences are background and not binding sites). Details: protein concentration: 200 nM; construct: GST-full length.
T1 sequence: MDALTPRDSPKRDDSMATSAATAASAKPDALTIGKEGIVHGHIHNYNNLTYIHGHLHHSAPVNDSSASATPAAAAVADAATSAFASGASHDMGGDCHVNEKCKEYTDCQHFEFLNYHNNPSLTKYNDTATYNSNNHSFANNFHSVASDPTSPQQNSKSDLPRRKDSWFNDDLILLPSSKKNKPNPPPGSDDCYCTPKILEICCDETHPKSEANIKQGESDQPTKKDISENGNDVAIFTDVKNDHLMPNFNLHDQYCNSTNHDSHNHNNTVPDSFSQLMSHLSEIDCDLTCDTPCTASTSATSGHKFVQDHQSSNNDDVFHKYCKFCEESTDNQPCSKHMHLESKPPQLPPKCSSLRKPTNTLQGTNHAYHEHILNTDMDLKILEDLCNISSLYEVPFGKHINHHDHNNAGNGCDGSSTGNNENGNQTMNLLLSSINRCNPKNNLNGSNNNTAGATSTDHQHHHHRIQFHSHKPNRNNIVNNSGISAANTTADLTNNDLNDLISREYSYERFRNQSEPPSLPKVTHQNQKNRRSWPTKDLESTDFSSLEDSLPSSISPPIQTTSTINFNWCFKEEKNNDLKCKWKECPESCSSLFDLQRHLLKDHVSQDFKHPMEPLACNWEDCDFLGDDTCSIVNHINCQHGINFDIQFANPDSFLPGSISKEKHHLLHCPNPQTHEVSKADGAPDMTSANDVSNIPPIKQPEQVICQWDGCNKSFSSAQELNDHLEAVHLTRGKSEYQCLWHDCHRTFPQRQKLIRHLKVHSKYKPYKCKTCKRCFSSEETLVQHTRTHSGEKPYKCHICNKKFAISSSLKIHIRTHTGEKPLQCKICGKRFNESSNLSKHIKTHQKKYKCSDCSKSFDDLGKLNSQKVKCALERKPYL
Outline: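 Yeast transcription factors, full-length or as DNA-binding domains, were expressed with a GST tag using PURExpress in vitro transcription/translation. At about 100-200 nM they were applied to universal all-10-mer Agilent arrays, double-stranded by primer extension on fresh or once-stripped slides. Fluorescent anti-GST detected bound protein, and masliner normalised the scans. E-scores for ungapped eight-base words, pooled with reverse complements, came from the Universal PBM Analysis Suite.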

Sequence	PBM E-score
AAGCGATT	-0.125
ATTCCAGG	0.00142
AACCCCAA	0.377
ACCTGTAC	0.193
AGACCTCG	0.225
CCCGTCCA	-0.211
GATAAGTA	0.114
CCCGCATC	-0.137
GATCCGCA	-0.163
CGAACGAC	-0.12
CCTGACAA	-0.00831
TACGGCAA	-0.17
AGGCTGTC	-0.202
CCAGGGTC	0.19
AAATATTA	0.133
ACGAGGTA	0.244
CCGTCGAA	-0.0856
ATCAATCC	-0.0813
CAACAATG	0.00437
CGTTCCCA	-0.125
CCGATTGC	-0.0985
CATATTTC	0.0387
GTGGACAC	0.109
CCCCATAG	0.201
ATAGTCCA	0.103

Sequence	PBM E-score
AGCATCAG	-0.184
CTATAGGC	-0.0315
CTTGAAAG	0.11
CCACCGAG	-0.0392
GCGCGAGC	-0.141
ACACTATG	-0.106
GGGCAACC	0.0413
ACTTGTAT	0.0311
AGCTCAAG	-0.123
CCGCAAAC	0.231
TACCCAAA	0.312
CTCACTCC	-0.225
GGGGTGAC	0.337
CTGAGTTC	0.0158
GCACGCGA	-0.0965
CTAAGTCC	-0.137
CAGAACGC	-0.139
GAACCCGA	0.0725
GCACTACC	0.187
AAGCAGCG	-0.00408
ACAGTCGA	-0.115
AGGTAACA	0.344
GAATGAAC	0.0344
GCAATCCC	0.00865
AAAAGAAA	0.0969

Sequence	PBM E-score
CGCGAACC	0.0111
ATTCCTGC	-0.0866
AAGTTTTC	0.155
CGACAAAG	0.0303
CTGTTCTC	-0.244
GAGTCTCC	-0.179
CCCTCGGC	-0.137
CAAATCTA	0.00251
GCAAACAC	-0.107
ACGCAAAG	-0.0402
AAAGTCCT	0.0317
ACGACTTG	-0.209
GTGTCTAA	0.155
AAGGGAGT	-0.213
CATGAAGA	0.0464
GTCCTATA	-0.189
AGACGAAG	-0.131
AACGTGGA	-0.0402
CGACGATA	0.0164
AAATGCAA	0.115
CGCGTATC	0.0418
AGGTAATC	0.189
ATTCCGGG	0.0348
AGTTCTGA	0.0719
AAAGGGCA	-0.0435

Sequence	PBM E-score
TGGGAACA	-0.173
CAACTTCA	-0.00642
ATAAGACA	-0.0362
CTGCTTAC	-0.0264
AGCCCACG	-0.185
ACAACAGC	-0.00904
CGAGAGAG	-0.0422
CGAACGAG	-0.164
AACATTCA	-0.0262
GGCGGCCC	-0.25
CCATTAGG	0.0328
GTCGTTGA	-0.12
AATACGAC	-0.05
AGCGGCTC	-0.122
AATCTGGA	-0.0459
GGCCATAA	0.252
AATACATC	-0.146
CCGGATAC	-0.0506
ACTTACTA	-0.0941
CTTTCTAA	0.0907
ATACCCCA	0.383
ATAATCTG	0.0985
AGGATCAA	0.166
ACCCCACC	0.419
CAAGATCA	0.116

Sequence	PBM E-score
AAATCCCT	-0.132
CGACTCAG	-0.102
GCAAGGTA	0.265
CAGCCCCA	-0.0717
CCTATGAA	-0.162
GGATACAA	0.0969
TGGGGACA	0.0817
AGACATTA	0.0601
GAGTCTCA	-0.118
ATTGTGAA	0.122
CAAAGGCG	-0.279
CCTTAAAC	0.143
CGGACCGA	-0.0404
ACCTCGAG	0.349
ACCTCACA	0.241
CACCGCGG	0.176
CATTATTA	0.167
AGCACGGA	-0.261
CCCTGGAA	-0.22
TGGATAAA	0.0922
ACGTATCC	-0.239
ACACACCC	0.0972
CGTTGTCC	0.0918
CCCGGGAC	0.0471
TCACAAAA	0.157

Sequence	PBM E-score
CTTGTGTC	0.0569
CCTGCCGA	-0.136
GTACACTA	-0.0568
TCCATAGA	-0.102
CTATGGCC	-0.0146
CCCGAGGC	-0.0737
CCAACTCG	0.122
ACGGGTTA	0.408
ATGCCAAG	-0.0511
TAGTGTGA	0.0007
AGTCGCGA	0.113
AGCTATCC	-0.263
ACAAATGG	0.0107
CTGTACTA	0.0369
CTACACGC	-0.298
AAGTTACA	0.169
GATTAAAA	0.184
CACATGGC	0.0746
AGAAGACC	0.187
CGTAACTC	0.168
AGGTTCAT	0.181
CATACCAC	0.124
CCGCGTGC	-0.17
CATACACA	0.0179
AATTAAAA	0.162

Sequence	PBM E-score
ACGTTTAC	-0.083
ATTCCCGA	-0.0919
TGTTTTAA	0.208
CGAATGGA	0.0883
AATGAATG	0.0096
CTAAAACA	0.0791
AGACTCAA	-0.037
CATTAGAG	0.125
CTTAGAAC	0.135
CCTCGGTC	-0.0963
ACCCACCA	0.177
CATCCGGA	-0.17
ATGTCGAA	-0.00735
GGGGCGGA	-0.0553
TACACTCA	0.0358
AGTAGTCC	-0.177
CTCTAGTA	0.0128
AATTCTTC	-0.00929
GCTCGTGA	-0.154
ACCACGAT	0.157
CTCTAACA	0.0644
AAGTGGCG	-0.0995
CTGAAGGA	-0.0272
CATTCTGG	-0.0234
CATTACAC	0.0554

Sequence	PBM E-score
GGTTCTAA	0.231
CGATATGC	-0.0505
CCTCTTTC	-0.127
GTCCACCA	0.0384
GCGTGAGC	-0.0246
CAGTTTGG	-0.0899
ATCCACCG	-0.125
CCCTTGAA	0.102
TAAGGAGA	-0.113
ACCGCTAT	0.137
CCACCTGG	0.0233
ATTTGTGC	0.108
ATGTTTCG	0.118
CGTGGTAA	0.0908
GCAATGCA	-0.0995
AGAGCCTG	-0.232
ACTGGTTG	0.188
AGCCGATC	-0.127
CAGATACC	0.1
CCTATCAG	-0.0469
ATCAACGG	0.127
AGTCAGAC	0.00907
GAAAATGC	-0.0932
AGACCGCG	0.153
ACTCGTAG	-0.174

Sequence	PBM E-score
TCTAAGAA	0.203
ACAATTAC	0.0448
GCCAGCGC	-0.361
AACCCCTA	0.389
ATACTTGA	-0.0537
GCCGGGCA	-0.265
AGAGATAG	-0.057
ACTTTGGG	-0.0129
AAGGTACG	0.0328
CAGACTGC	-0.211
GTGAATGA	0.136
ACCCTTTA	0.415
AGCCCCCC	-0.286
ACGGCAAA	-0.127
CAATATCG	-0.06
ATTATAAG	0.151
GCTTAGGA	-0.205
GAGGGCAC	-0.195
CGGAGCCA	-0.128
